± gives the standard deviation of the averaged measurements. The full ranking holds about 33,000 sequences; the median of “E-score (dimensionless, -0.5 to 0.5)” is about -0.049, and the highest 2% start at about 0.37. Some of the results follow.
The sequences below were run on T1, PmTbr T-box DNA-binding domain (GST fusion) (assay: PBM E-score of 8-mer (E-score (dimensionless, -0.5 to 0.5)); Tbr is Tbrain of the sea star Patiria miniata (Pm) or the sea urchin Strongylocentrotus purpuratus (Sp); higher = stronger binding preference; most listed sequences are background and not binding sites). Details: the construct has about 5 more residues each side.
T1 sequence: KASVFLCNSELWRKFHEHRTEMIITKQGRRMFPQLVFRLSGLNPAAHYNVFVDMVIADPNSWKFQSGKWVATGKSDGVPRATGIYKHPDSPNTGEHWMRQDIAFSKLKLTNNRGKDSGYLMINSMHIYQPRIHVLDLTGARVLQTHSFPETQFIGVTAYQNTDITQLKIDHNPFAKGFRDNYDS
Description: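 Universal protein-binding microarray (Agilent AMADID 016060, 60-bp probes with a 35-bp variable region) incubated with 200 nM GST-fused Patiria miniata Tbr T-box DNA-binding domain (residues 272-466) in PBS pH 7.5. Scored for every ungapped 8-mer (given with its reverse complement) by the Universal PBM Analysis Suite as E-score (modified Wilcoxon-Mann-Whitney enrichment, range -0.5 to 0.5; >0.45 counts as bound) and Z-score of median probe intensity. Two replicate arrays (datasets 1 and 2).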
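Note: 200 nM protein in PBS on universal arrays averaged over duplicate arrays.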

| Sequence | PBM E-score of 8-mer |
| --- | --- |
| CACGTGCC | 0.281 ± 0.026 |
| AGTTAGAG | -0.203 ± 0.011 |
| CTGTTTCC | -0.0891 ± 0.035 |
| AGAATTGA | 0.0476 ± 0.053 |
| GTTAGTGA | 0.182 ± 0.0042 |
| ACGTGTGC | 0.174 ± 0.035 |
| AAAGTCGG | -0.156 ± 0.066 |
| AGCAGTGG | -0.138 ± 0.0063 |
| AGGTCTGA | -0.24 ± 0.038 |
| TTATCCAA | 0.0266 ± 0.0076 |
| GACGGAAC | -0.117 ± 0.06 |
| AACGCCGA | -0.0727 ± 0.06 |
| CTGCGACC | 0.146 ± 0.0092 |
| AGCGGAAC | -0.0952 ± 0.07 |
| ATAGCGGA | 0.0349 ± 0.027 |
| GGACAATA | -0.226 ± 0.033 |
| CTAGCTTA | -0.0597 ± 0.019 |
| GACAGCGC | 0.0941 ± 0.072 |
| ACTCGAGG | 0.03 ± 0.075 |
| AGAAAAAT | -0.0785 ± 0.11 |
| CCTTGCCG | -0.0437 ± 0.064 |
| CTTTCATC | -0.0647 ± 0.1 |
| TCATACGA | -0.0175 ± 0.029 |
| CGCGGCCC | -0.142 ± 0.063 |
| GAGCTGAC | 0.132 ± 0.004 |

| Sequence | PBM E-score of 8-mer |
| --- | --- |
| CTTTAGCA | 0.266 ± 0.061 |
| CGGAAGAC | 0.0312 ± 0.0091 |
| ACATGTGG | 0.0299 ± 0.045 |
| AAGTTGGA | -0.0116 ± 0.045 |
| GCCTTAAA | -0.218 ± 0.088 |
| CATCAGAC | -0.156 ± 0.024 |
| CACTATTA | 0.168 ± 0.032 |
| ACGCCCAT | 0.025 ± 0.014 |
| CGTTAGGA | -0.0458 ± 0.015 |
| CGGTTTAA | -0.116 ± 0.04 |
| CCATGAGG | -0.168 ± 0.03 |
| GCAGAAAA | -0.0494 ± 0.066 |
| ACCCATGG | -0.144 ± 0.079 |
| CGATATTA | 0.00496 ± 0.033 |
| ATTACTGC | -0.00494 ± 0.021 |
| AGCTCCCA | -0.308 ± 0.076 |
| GTAGAGAA | -0.0935 ± 0.066 |
| CCAGAATA | -0.00252 ± 0.053 |
| AAAAACTC | -0.0683 ± 0.087 |
| AACATCTA | -0.121 ± 0.0062 |
| CCAACTAA | 0.0318 ± 0.012 |
| ACCGTGCA | -0.137 ± 0.0068 |
| CACGGTCC | -0.0453 ± 0.0074 |
| CCACTTCA | 0.13 ± 0.034 |
| CAGATTCA | -0.234 ± 0.082 |

| Sequence | PBM E-score of 8-mer |
| --- | --- |
| ACCCTTCC | -0.135 ± 0.079 |
| GTGGTAAA | 0.227 ± 0.041 |
| GATTCTGC | -0.138 ± 0.023 |
| ACTTCGGC | 0.095 ± 0.0012 |
| GCGATCGA | -0.0723 ± 0.0095 |
| ATCAAACG | -0.135 ± 0.021 |
| ATCCCGAT | -0.139 ± 0.05 |
| GCTAATTA | 0.166 ± 0.088 |
| ATTGAAAA | -0.184 ± 0.035 |
| GAGTTTGC | -0.0513 ± 0.056 |
| CTAAGCTC | -0.141 ± 0.061 |
| ATGGTGCG | 0.187 ± 0.036 |
| ACGGCCCT | -0.141 ± 0.027 |
| CACTTAAG | 0.255 ± 0.012 |
| GCCCATGA | -0.12 ± 0.034 |
| GCACGCCC | 0.0828 ± 0.071 |
| AATCATGT | -0.202 ± 0.041 |
| GGTCCTCA | -0.0641 ± 0.0052 |
| ACATAACA | 0.232 ± 0.0052 |
| AGGTGACA | 0.4826 ± 0.00079 |
| AATGGCAG | -0.05083 ± 0.0002 |
| AGTCACCA | 0.0611 ± 0.064 |
| ATATTTGA | -0.129 ± 0.038 |
| ATGCCTTA | -0.312 ± 0.037 |
| CCCGTCTA | -0.121 ± 0.043 |

| Sequence | PBM E-score of 8-mer |
| --- | --- |
| CGATTAAC | 0.0479 ± 0.014 |
| CATTACCG | -0.0229 ± 0.033 |
| GAGGGGAC | -0.243 ± 0.049 |
| ACAGACCG | -0.101 ± 0.051 |
| ACACATCA | 0.299 ± 0.017 |
| ACTGTCTC | -0.0454 ± 0.11 |
| TCTGGACA | -0.2 ± 0.021 |
| ATTGTGCG | 0.163 ± 0.019 |
| ACAGAGCG | -0.0671 ± 0.04 |
| ACTTAAGT | -0.0522 ± 0.021 |
| AGGATTCG | -0.143 ± 0.095 |
| AGCTTCGA | -0.105 ± 0.042 |
| CATGAGTA | 0.0426 ± 0.016 |
| ATCACAGC | 0.211 ± 0.024 |
| AATGGGCC | -0.107 ± 0.042 |
| CTGTCATA | 0.151 ± 0.011 |
| ACCGGTCG | -0.0124 ± 0.054 |
| CCCATCAC | 0.265 ± 0.0027 |
| CGAGAAGC | -0.0676 ± 0.057 |
| CCCTGATC | -0.11 ± 0.033 |
| ACAGAACA | -0.118 ± 0.092 |
| ACTCCGCA | 0.0199 ± 0.0014 |
| CCTGCTAC | 0.133 ± 0.02 |
| TAGGCGCA | 0.0881 ± 0.02 |
| CCATGGCA | 0.0934 ± 0.1 |

| Sequence | PBM E-score of 8-mer |
| --- | --- |
| CACAATCG | 0.0995 ± 0.018 |
| GCGGAGTA | -0.125 ± 0.0083 |
| ACCCGGGA | 0.0134 ± 0.038 |
| GAAACAGC | -0.0449 ± 0.074 |
| CCGCTAAC | 0.169 ± 0.038 |
| AGGTTACT | -0.15 ± 0.0084 |
| CAATATCA | 0.144 ± 0.04 |
| GTCAGAAC | -0.103 ± 0.029 |
| CAGCGGAA | -0.153 ± 0.011 |
| GGAGTTAC | -0.0306 ± 0.046 |
| GACGATTA | 0.025 ± 0.011 |
| CCGACCCG | -0.132 ± 0.035 |
| GAAGACGC | 0.0456 ± 0.057 |
| CACCCCGG | 0.334 ± 0.024 |
| AATCACAC | 0.462 ± 0.0075 |
| GCTAAATA | 0.209 ± 0.042 |
| CTATCTTA | -0.149 ± 0.0076 |
| CAAATGTA | -0.183 ± 0.063 |
| CCGGGTGC | 0.252 ± 0.017 |
| CTCAACAG | 0.00592 ± 0.036 |
| ACCCCAGT | -0.138 ± 0.1 |
| AGATGATG | -0.174 ± 0.0057 |
| CAGGAAGG | -0.0473 ± 0.0084 |
| CTTCCATA | -0.193 ± 0.024 |
| CAGGTAGA | 0.0483 ± 0.012 |

| Sequence | PBM E-score of 8-mer |
| --- | --- |
| GTCGTTTA | -0.0502 ± 0.058 |
| GGGGGGCA | -0.327 ± 0.0093 |
| GGCCGTTA | -0.189 ± 0.0025 |
| GGCTAGCC | -0.112 ± 0.018 |
| AGTTAACG | 0.0806 ± 0.066 |
| ACGGGCTG | 0.00145 ± 0.042 |
| TGACCCCA | -0.119 ± 0.087 |
| CAGTCTAA | -0.218 ± 0.021 |
| TCGGTAGA | -0.0848 ± 0.035 |
| AAAATCTT | -0.287 ± 0.032 |
| AGAGGGAG | -0.101 ± 0.017 |
| CTTAGACC | 0.0398 ± 0.062 |
| ACCGGCAC | 0.159 ± 0.03 |
| ACAGTGAG | 0.155 ± 0.059 |
| AATTACCT | 0.0296 ± 0.054 |
| CTTAGCTC | -0.162 ± 0.0032 |
| GGGCATTA | -0.101 ± 0.025 |
| CCTTCCAC | 0.0992 ± 0.017 |
| GCTCACTA | 0.0272 ± 0.021 |
| ACTTGTAC | -0.105 ± 0.037 |
| CCTCTTCC | -0.253 ± 0.0039 |
| ATGGTAGC | -0.00664 ± 0.012 |
| GACGAACC | -0.183 ± 0.04 |
| TACCCTCA | -0.0966 ± 0.0095 |
| GCCCAGTA | -0.226 ± 0.038 |

| Sequence | PBM E-score of 8-mer |
| --- | --- |
| AGGGGCTC | -0.163 ± 0.019 |
| CCAGCGCA | -0.0605 ± 0.081 |
| AAGGTACC | 0.0276 ± 0.049 |
| GTTACAAA | 0.034 ± 0.079 |
| CGCGGTTC | 0.206 ± 0.0036 |
| TAAGCGTA | -0.0955 ± 0.03 |
| AGGAGGCG | 0.3007 ± 0.00038 |
| GAGGCACA | 0.0374 ± 0.011 |
| AGCCTGCA | -0.301 ± 0.0032 |
| CTATATAG | 0.149 ± 0.09 |
| ATTGCCGA | 0.0547 ± 0.071 |
| AGAATGGA | -0.187 ± 0.03 |
| CTTCCCCA | 0.0352 ± 0.068 |
| CCAATTTA | -0.104 ± 0.11 |
| AACGCCTC | 0.362 ± 0.007 |
| CCAGTAAC | -0.0658 ± 0.066 |
| CTAAAGTA | -0.0432 ± 0.053 |
| GGTGTACA | 0.0134 ± 0.02 |
| ACCCGTAG | -0.0582 ± 0.021 |
| ACAACCTC | 0.157 ± 0.027 |
| CGCTTATC | 0.0947 ± 0.018 |
| CAGGGGCG | 0.179 ± 0.035 |

Reference: the supplement of paper PMC4166925
